The source of these data is the supplement of paper PMC11876631.

B1: pgsA; numbered along this chain (parent)
chain: MQFNIPTLLTLFRVILIPFFVLVFYLPVTWSPFAAALIFCVAAVTDWFDGFLARRWNQSTRFGAFLDPVADKVLVAIAMVLVTEHYHSWWVTLPAATMIAREIIISALREWMAELGKRSSVAVSWIGKVKTTAQMVALAWLLWRPNIWVEYAGIALFFVAAVLTLWSMLQYLSAARADLLDQ
B2: lspA; numbered along this chain (parent)
chain: MSQSICSTGLRWLWLVVVVLIIDLGSKYLILQNFALGDTVPLFPSLNLHYARNYGAAFSFLADSGGWQRWFFAGIAIGISVILAVMMYRSKATQKLNNIAYALIIGGALGNLFDRLWHGFVVDMIDFYVGDWHFATFNLADTAICVGAALIVLEGFLPSRAKKQ
B3: hemH; numbered along this chain (parent)
chain: MRQTKTGILLANLGTPDAPTPEAVKRYLKQFLSDRRVVDTSRLLWWPLLRGVILPLRSPRVAKLYASVWMEGGSPLMVYSRQQQQALAQRLPEMPVALGMSYGSPSLESAVDELLAEHVDHIVVLPLYPQFSCSTVGAVWDELARILARKRSIPGISFIRDYADNHDYINALANSVRASFAKHGEPDLLLLSYHGIPQRYADEGDDYPQRCRTTTRELASALGMAPEKVMMTFQSRFGREPWLMPYTDETLKMLGEKGVGHIQVMCPGFAADCLETLEEIAEQNREVFLGAGGKKYEYIPALNATPEHIEMMANLVAAYR
B4: leuB; numbered along this chain (parent)
chain: MSKNYHIAVLPGDGIGPEVMTQALKVLDAVRNRFAMRITTSHYDVGGAAIDNHGQPLPPATVEGCEQADAVLFGSVGGPKWEHLPPDQQPERGALLPLRKHFKLFSNLRPAKLYQGLEAFCPLRADIAANGFDILCVRELTGGIYFGQPKGREGSGQYEKAFDTEVYHRFEIERIARIAFESARKRRHKVTSIDKANVLQSSILWREIVNEIATEYPDVELAHMYIDNATMQLIKDPSQFDVLLCSNLFGDILSDECAMITGSMGMLPSASLNEQGFGLYEPAGGSAPDIAGKNIANPIAQILSLALLLRYSLDADDAACAIERAINRALEEGIRTGDLARGAAAVSTDEMGDIIARYVAEGV

± gives the standard deviation of the averaged measurements. Laboratory Escherichia coli strains with one amino-acid change in an essential protein, pooled on minimal glucose agar with carbenicillin or gentamicin at twice the control MIC (plus kanamycin and chloramphenicol for the plasmids), 48 h. Fold change of barcode share against drug-free plates; higher = less susceptible. Active = above 20 in both replicates (the paper's putatively resistant). '<' = one read or none on drug, '>' = one read or none on a drug-free plate. Shares are relative, so most strains fall below 1 when a few take over. Listed are strains with at least 15 reads on both drug-free plates, and hits; most hits rest on fewer reference reads. Replicate rank correlation about 0.5. Edits are read from barcodes.

Variants of B1 are the subject of the first data set. In words: barcode share on antibiotic plates over drug-free plates; higher = less susceptible. The conditions noted are these: with Escherichia coli (laboratory strain); antibiotic: carbenicillin; 2× MIC (3.1 µg/mL). Here is the method:
(§1)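 A pool of E. coli strains, each edited to carry one amino-acid change in an essential protein, was grown for 48 h on minimal glucose agar with or without antibiotic; strain barcodes were sequenced; mean of two replicates.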
Regarding L37D, the “fold change of barcode share” value came to 0.319 ± 0.1. Same read-out and setting: to L37P belongs 0.166 ± 0.024; to L37Q, 0.8538 ± 0.0055. Take L37W: the “fold change of barcode share” value is 0.23 ± 0.1. In the case of L37A, the “fold change of barcode share” value was determined as 0.262 ± 0.083. Same read-out and setting: to F39A belongs 0.189 ± 0.016.

Staying with this data set, now noted: with Escherichia coli (laboratory strain); antibiotic: gentamicin; 2× MIC (MIC 0.45 µg/mL).
For L37D, the “fold change of barcode share” value worked out at 2.5 ± 1.2. Regarding L37P, the “fold change of barcode share” value was found to be 16.3 ± 18.

With L37Q, the “fold change of barcode share” value is less than 0.00641. For the variant L37W, the “fold change of barcode share” value was 0.00638 ± 0.00099.

For L37A, the “fold change of barcode share” value was less than 0.00784. F39A: the “fold change of barcode share” value was 93.9 [active].

The variants in a further data set derive from B2. Described as above. The conditions noted are these: with Escherichia coli (laboratory strain); antibiotic: carbenicillin; 2× MIC (3.1 µg/mL). As for the experimental part:
as §1
Take F71A: the “fold change of barcode share” value was determined as 0.205 ± 0.096. With F71W, the “fold change of barcode share” value was found to be 0.258 ± 0.082.

For the variant F71P, the “fold change of barcode share” value was determined as 0.424 ± 0.021.

In the case of I75A, the “fold change of barcode share” value came out at 1.03 ± 0.35.

As for I75Q, the “fold change of barcode share” value was found to be 0.442 ± 0.093. Same read-out and setting: to I75D belongs 0.341 ± 0.0084. For I75W, the “fold change of barcode share” value is 0.373 ± 0.25. Still for that read-out and setting: to I75P belongs 0.567 ± 0.19; to L150A, 0.287 ± 0.059; to L150D, 0.165 ± 0.081. In the case of L150W, the “fold change of barcode share” value came out at 0.252 ± 0.083. For the variant L150P, the “fold change of barcode share” value amounted to 0.409 ± 0.25. Take L150Q: the “fold change of barcode share” value came to 0.243 ± 0.14. In the case of L15P, the “fold change of barcode share” value came to 0.547 ± 0.32. In the case of L15Q, the “fold change of barcode share” value came to 0.299 ± 0.21. L15W: the “fold change of barcode share” value came to 0.193 ± 0.04. Turning to L15A, the “fold change of barcode share” value came out at 0.246 ± 0.03.

V146D: the “fold change of barcode share” value was found to be 0.334 ± 0.033. For V146Q, the “fold change of barcode share” value stood at 0.262 ± 0.0059. The same measure, in the same setting: to V146P belongs 0.318 ± 0.068; to V146A, 0.275 ± 0.013. Consider V146W, for which the “fold change of barcode share” value turned out to be 0.228 ± 0.013. As to V17A, the “fold change of barcode share” value turned out to be 0.511 ± 0.58. As to V17D, the “fold change of barcode share” value came to 0.242 ± 0.17. For the variant V17Q, the “fold change of barcode share” value was found to be 0.459 ± 0.42. For I151Q, the “fold change of barcode share” value is 0.258 ± 0.064. Same read-out and setting: to I151P belongs 0.37 ± 0.0069; to I151A, 0.213 ± 0.082; to I151D, 0.325 ± 0.0097. In the case of I151W, the “fold change of barcode share” value worked out at 0.352 ± 0.053.

Still in this data set, the particulars now being: with Escherichia coli (laboratory strain); antibiotic: gentamicin; 2× MIC (MIC 0.45 µg/mL).
With F71A, the “fold change of barcode share” value was determined as 0.0142 ± 0.005.

F71W: the “fold change of barcode share” value is less than 0.0116.

Turning to F71P, the “fold change of barcode share” value is less than 0.00628. As for I75A, the “fold change of barcode share” value is 0.00644 ± 0.004.

For I75Q, the “fold change of barcode share” value was 0.0145 ± 0.0019. As to I75D, the “fold change of barcode share” value was less than 0.00494. Turning to I75W, the “fold change of barcode share” value is 0.00846 ± 0.0056. Take I75P: the “fold change of barcode share” value was less than 0.0115. On the same count and under the same terms, to F72A belongs less than 0.0227; to L150A, 0.00848 ± 0.0066; to L150D, less than 0.0203. Take L150W: the “fold change of barcode share” value worked out at 0.11 ± 0.15. For the variant L150P, the “fold change of barcode share” value came to 0.00476 ± 0.0018. With L150Q, the “fold change of barcode share” value is less than 0.00512.

As to L15P, the “fold change of barcode share” value was less than 0.00703. As for L15Q, the “fold change of barcode share” value was less than 0.00576. As for L15W, the “fold change of barcode share” value was less than 0.00501. Turning to L15A, the “fold change of barcode share” value stood at 0.00783 ± 0.0022.

Take V146D: the “fold change of barcode share” value is 0.00371 ± 0.0017. Consider V146Q, for which the “fold change of barcode share” value turned out to be 0.00241 ± 0.00078. For the variant V146P, the “fold change of barcode share” value was 0.00449 ± 0.0041.

Take V146A: the “fold change of barcode share” value came out at 0.00534 ± 0.00093.

For V146W, the “fold change of barcode share” value is less than 0.00203. Consider V17A, for which the “fold change of barcode share” value turned out to be 0.00968 ± 0.0058. For V17D, the “fold change of barcode share” value is less than 0.00852.

For V17W, the “fold change of barcode share” value was less than 0.00739.

As to V17P, the “fold change of barcode share” value is less than 0.00442. For V17Q, the “fold change of barcode share” value is less than 0.00987. Same read-out and setting: to I151Q belongs less than 0.00503; to I151P, 0.00532 ± 0.0049.

For the variant I151A, the “fold change of barcode share” value was determined as 0.0128 ± 0.013. For the variant I151D, the “fold change of barcode share” value is less than 0.00394. Take I151W: the “fold change of barcode share” value was determined as 0.00228 ± 0.0011.

Variants of B3 are the subject of a further data set. The data set is described as above. The conditions noted are these: with Escherichia coli (laboratory strain); antibiotic: carbenicillin; 2× MIC (3.1 µg/mL). Here is the method: as §1
Turning to V316Q, the “fold change of barcode share” value was 0.207 ± 0.085. Regarding F269W, the “fold change of barcode share” value came out at 0.305 ± 0.18.

The same data set, now with this note: with Escherichia coli (laboratory strain); antibiotic: gentamicin; 2× MIC (MIC 0.45 µg/mL).
In the case of V316Q, the “fold change of barcode share” value was less than 0.00818. Turning to V316W, the “fold change of barcode share” value was less than 0.0143. In the case of F269W, the “fold change of barcode share” value was 0.0125 ± 0.015.

The variants in the next data set derive from B4. Described as above. The conditions noted are these: with Escherichia coli (laboratory strain); antibiotic: carbenicillin; 2× MIC (3.1 µg/mL). Here is the method: as §1
As for L309A, the “fold change of barcode share” value came out at 0.748 ± 0.074. With L309Q, the “fold change of barcode share” value came out at 0.404 ± 0.11. L309W: the “fold change of barcode share” value came out at 0.648 ± 0.033. On the same count and under the same terms, to V137A belongs 0.48 ± 0.043; to V137Q, 1.75 ± 0.29; to V137W, 1.05 ± 0.54. Take L308A: the “fold change of barcode share” value turned out to be 0.432 ± 0.07. On to L308Q, for which the “fold change of barcode share” value was found to be 0.442 ± 0.14. Regarding F73Q, the “fold change of barcode share” value is 0.499 ± 0.23.

Consider F73A, for which the “fold change of barcode share” value amounted to 0.656 ± 0.11. For F73W, the “fold change of barcode share” value was found to be 0.399 ± 0.12. Take L10D: the “fold change of barcode share” value was 9.74 ± 4. On the same count and under the same terms, to L10Q belongs 0.777 ± 0.18.

Staying with this data set, now noted: with Escherichia coli (laboratory strain); antibiotic: gentamicin; 2× MIC (MIC 0.45 µg/mL).
In the case of L309A, the “fold change of barcode share” value is less than 0.0132. For L309Q, the “fold change of barcode share” value was less than 0.00702. As for L309W, the “fold change of barcode share” value was found to be 0.0148 ± 0.0076. Still for that read-out and setting: to V137A belongs 0.0195 ± 0.017; to V137Q, 0.107 ± 0.04; to V137W, 0.0106 ± 0.012. Still for that read-out and setting: to L308P belongs less than 0.0188; to L308A, less than 0.0138.

In the case of L308Q, the “fold change of barcode share” value was less than 0.00694.

With F73Q, the “fold change of barcode share” value was found to be 0.00801 ± 0.0033. As for F73A, the “fold change of barcode share” value worked out at 0.0141 ± 0.0051. Take F73W: the “fold change of barcode share” value is 0.0102 ± 0.0028. Same read-out and setting: to L10Q belongs 0.0123 ± 0.0095.
